The source of these data is PubChem BioAssay AID1159614 (National Center for Advancing Translational Sciences (NCATS), 2016).

Structures are written as SMILES. Hit rate of the full screen: of about 45,000 compounds, about 65 (0.1%) were called active. Calls come from the whole dose curve; as a rule, active = well fitted activation curve with a large enough effect; inconclusive = small, poorly fitted or top-dose-only effect; inactive = no such curve, though single readings can be large or run the other way. The list shows a part of the results.

Sequence of UniProt P54803 (P54803 whole entry, looked up): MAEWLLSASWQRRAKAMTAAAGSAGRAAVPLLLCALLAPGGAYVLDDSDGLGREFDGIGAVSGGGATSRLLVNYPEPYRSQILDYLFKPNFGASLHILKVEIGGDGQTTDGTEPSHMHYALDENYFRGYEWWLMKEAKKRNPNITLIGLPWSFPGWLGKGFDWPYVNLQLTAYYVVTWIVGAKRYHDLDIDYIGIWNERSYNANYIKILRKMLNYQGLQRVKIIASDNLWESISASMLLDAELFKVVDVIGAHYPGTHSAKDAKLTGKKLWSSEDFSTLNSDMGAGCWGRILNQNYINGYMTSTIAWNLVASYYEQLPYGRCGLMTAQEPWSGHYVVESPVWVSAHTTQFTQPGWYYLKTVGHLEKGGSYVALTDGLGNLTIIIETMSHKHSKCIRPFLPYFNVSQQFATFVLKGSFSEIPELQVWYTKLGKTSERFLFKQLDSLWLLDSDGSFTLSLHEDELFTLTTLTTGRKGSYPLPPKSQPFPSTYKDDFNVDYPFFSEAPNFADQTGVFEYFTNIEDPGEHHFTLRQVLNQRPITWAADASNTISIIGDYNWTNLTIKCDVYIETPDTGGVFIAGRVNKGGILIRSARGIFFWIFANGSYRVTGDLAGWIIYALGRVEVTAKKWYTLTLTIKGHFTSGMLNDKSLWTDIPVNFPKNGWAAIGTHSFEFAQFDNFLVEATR

This assay deals with Galactocerebrosidase (Homo sapiens) (UniProt P54803). As to the kind of experiment: A Novel Cell-Based Assay to Identify Small Molecules for B -Galactocerebrosidase. Note: 0% is about no effect; nearly all actives have a fitted effect of over 65% in size. The following applies: 145M-Twi-hGALC-G270D cells (Twitcher mouse brain line with human GALC G270D), HMU-beta-Gal fluorescence, 48 h; series mostly up to 57.5 µM; activation: at the top concentration. Put shortly:
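Fluorescence readout: HMU-β-gal cleavage by mutant GALC (0.1 mM final, citrate/phosphate pH 5.2 with 1 mg/mL taurocholate), stopped with carbonate/bicarbonate plus Triton X-100. Cells: murine Twitcher 145M-Twi expressing human G270D GALC; qHTS for activators.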
On to `CCOc1ccc(CNCc2c(C(=O)O)c(C)n(Cc3ccc(F)cc3Cl)c2C)cc1`, for which the “activation” value was inactive: -10.5%.

For `Cc1nn(CCCC(=O)NCc2cccc(F)c2)c(=O)c2nn(-c3ccccc3)c(C)c12`, the “activation” value was inactive: -11.9%.

On to `COc1ccc(OC)c(-c2nc(C(N)=O)c3c(n2)n(-c2ccc4c(c2)OCO4)c(=O)n3C)c1`, for which the “activation” value is inactive: 3.35%.

As to `COc1ccccc1-c1noc(-c2ccc(N(C)Cc3ccccc3)c([N+](=O)[O-])c2)n1`, the “activation” value was inactive: -5.78%.

Take `Cc1ccc(NC(=O)Cn2nc(-c3ccc(F)cc3)c3cnc4ccc(C)cc4c32)cc1`: the “activation” value was inactive: -13.9%.

For `CCCN1CCN(c2ncc3c(n2)CCN(Cc2ccc(OC)c(OC)c2OC)C3)CC1`, the “activation” value is inactive: -10.3%.

As to `CCCCN(CC)C(=O)CCn1c(=O)c2cccn2c2cccnc21`, the “activation” value is inactive: -4.69%.

On to `COc1ccccc1C(=O)c1c(N)c(-c2nc(-c3ccccc3)cs2)c2ccccn12`, for which the “activation” value was inactive: -6.16%.

Turning to `Cc1ccc(NC(=O)CN(C)S(=O)(=O)c2ccc3c(c2)CCC(=O)N3)c(C)c1`, the “activation” value was inactive: -20%.

With `Cc1ccc(CN2CCCn3nc(C(=O)NCc4ccccc4Cl)cc3C2=O)cc1`, the “activation” value is inactive: -32.8%.

Regarding `COc1cc(NS(=O)(=O)c2ccc(N)cc2)nc(C)n1`, the “activation” value was inactive: -16%.

As for `CC(=O)c1cccc(N(C(=O)Cn2nnc3ccccc32)C(C(=O)NCc2ccccc2)c2ccc(F)cc2)c1` (centres undefined), the “activation” value is inactive: -16.2%.

On to `CCCCNC(=O)CN1C(=O)CSc2ccc(S(=O)(=O)N3CCC(C)CC3)cc21`, for which the “activation” value was inactive: -1.35%.

For `CCOC(=O)c1ccc(NC(=O)C2Cc3ccccc3C(=O)O2)cc1` (centres undefined), the “activation” value is inactive: -5.53%.

On to `Clc1cccc(N2CCN(c3ncnc4c3nc3n4CCCC3)CC2)c1`, for which the “activation” value is inactive: 1.81%.

Turning to `Cc1cc(=O)n(-c2ccccc2)n1C`, the “activation” value is inactive: -7.31%.

Consider `Cc1cccc(-c2noc(CNC(=O)c3ccco3)n2)c1`, for which the “activation” value was inactive: -4.97%.

In the case of `Brc1ccc(CNCCCSc2nnnn2-c2ccccc2)cc1`, the “activation” value was inactive: -8.89%.

For `COc1ccccc1-c1nn2c(=O)cc(CN3CCN(S(=O)(=O)c4ccc(C)cc4)CC3)nc2s1`, the “activation” value is inactive: 4.17%.

Take `Cc1ccc(-n2nnnc2CNC(=O)c2ccc(F)cc2)cc1C`: the “activation” value is inactive: -10.9%.

With `COc1cccc2cc(-c3cn4c(n3)sc3cc(F)ccc34)c(=O)oc12`, the “activation” value was inactive: -17.2%.

For `CC(=O)N(Cc1cccnc1)c1nc2ccc(F)cc2s1`, the “activation” value was inactive: -10%.

Turning to `COc1ccc(C(=O)NCC(c2cccs2)S(=O)(=O)c2ccc(F)c(C)c2)cc1` (centres undefined), the “activation” value is inactive: -6.84%.

Regarding `CC(=O)Nc1ccc(C)cc1-c1nc2ccccc2n(CC(=O)c2ccc(Cl)cc2)c1=O`, the “activation” value was inactive: -3.83%.

For the compound `Cc1c(Cl)cccc1NC(=O)Cn1nc(C(F)(F)F)c2c1CCC2`, the “activation” value is inactive: 1.39%.

`COc1ccc(OC)c(CNC(=O)c2ccccc2NC(=O)c2nsc3ccccc23)c1`: the “activation” value was inactive: -11.3%.

Consider `Cc1ccc(N2CCn3c2nc2c3c(=O)n(CCCc3ccccc3)c(=O)n2C)cc1`, for which the “activation” value was inactive: -2.04%.

Take `Cc1cc(C)c(NC(=O)Cn2c(=O)n(CCc3ccccc3)c(=O)c3ccccc32)c(C)c1`: the “activation” value was inactive: -7.42%.

On to `CCOc1ccccc1C(=O)N1CCN(CCc2ccccn2)CC1`, for which the “activation” value is inactive: -5.48%.

As to `Cc1ccc(C2=Nc3ccccc3N(CC(=O)Nc3ccccc3C)C(=O)C2)cc1C`, the “activation” value is inactive: -30.6%.

With `Cc1ccc(CNC(=O)NC2COc3ccccc3C2)cc1` (centres undefined), the “activation” value was inactive: -14.9%.

As to `Cc1onc(-c2ccccc2Cl)c1C(=O)Oc1ccc(Br)cc1`, the “activation” value was inactive: -5.62%.

For `Cn1cc(S(=O)(=O)N2CCCCCC2)cc1C(=O)NCc1ccc(Cl)cc1`, the “activation” value is inactive: 3.27%.

In the case of `CC1=C(C(=O)Nc2ccccc2)C(c2cccc(O)c2)n2nc(-c3ccccc3Cl)nc2N1` (centres undefined), the “activation” value was inactive: -8.97%.

Take `CCN1CCOC(=O)C1CC(=O)Nc1cccc(OC)c1` (centres undefined): the “activation” value was inactive: -22.2%.

Regarding `Cc1cc(C)n(-c2nc3ccccc3nc2Nc2cccc(C(=O)NCCc3ccccc3)c2)n1`, the “activation” value is inactive: -7.39%.

As for `COc1ccc(CCNC(=O)c2c(C)oc3nc(C)nc(N4CCOCC4)c23)cc1OC`, the “activation” value was inactive: 4.73%.

As to `Cc1ccc(NC(=O)C2CCCN(S(=O)(=O)c3cccc4cccnc34)C2)c(Br)c1` (centres undefined), the “activation” value was inactive: -1.24%.

For `CCN(c1ccc(OC)cc1)S(=O)(=O)c1nnc(NC(=O)COc2ccc(F)cc2)s1`, the “activation” value is inactive: -35.8%.

As to `CC(C)CC(=O)NCC(c1ccc2c(c1)OCO2)N1CCN(c2ccccc2F)CC1` (centres undefined), the “activation” value is inactive: -11.8%.

Regarding `C#CCn1c(/C=C/c2ccc(Cl)cc2)nc2ccccc21`, the “activation” value is inactive: -5.28%.

As to `CCCN(CCc1cccs1)[C@H]1CCc2c(O)cccc2C1`, the “activation” value is inactive: -17.1%.

As for `CCOC(=O)c1ccc(NC(=O)Nc2ccc3snnc3c2)cc1`, the “activation” value was inactive: -3.81%.

As to `Cc1cccc(-c2nc(SCC(=O)NCC3CCCO3)c3c(=O)n(C)c(=O)n(C)c3n2)c1` (centres undefined), the “activation” value was inactive: -25.9%.

For the compound `Cc1ccccc1N(C)C(=O)c1noc2c1COc1ccccc1-2`, the “activation” value was inactive: -1.33%.

As for `CCC(CC)C(=O)Nc1ccc(C(=O)OCc2cc(=O)n3nc(C4CC4)sc3n2)cc1`, the “activation” value is inactive: -21.4%.

`CCC(=O)Nc1ccc(C)cc1-c1nc2ccccc2n(C(C)C(=O)Nc2ccccc2CC)c1=O` (centres undefined): the “activation” value is inactive: -4.71%.

Turning to `CN1C(=O)c2ccccc2Sc2ccc(NC(=O)Cc3c(F)cccc3Cl)cc21`, the “activation” value was inactive: 6.83%.

Regarding `O=C(CCn1c(=O)c2cccn2c2cccnc21)NCc1ccccc1Br`, the “activation” value is inactive: -11.2%.

Turning to `CCOc1ccc(-c2noc(CSc3nnc(-c4ccccc4)n3-c3ccccc3)n2)cc1`, the “activation” value is inactive: -21.5%.

Take `CCC(C(=O)N1CCN(c2cc(Cl)ccc2C)CC1)n1nc(C)c2sc3ccccc3c2c1=O` (centres undefined): the “activation” value was inactive: -7.92%.

Take `O=C(NCc1ccccc1Cl)c1cccn1-c1nnc(N2CCCCC2)s1`: the “activation” value is inactive: -18%.

Turning to `Cc1ccc(N(C)S(=O)(=O)c2ccc3c(c2)C(C)(C)C(=O)N3C)cc1C`, the “activation” value was inactive: -1.52%.

`CC(=O)c1ccccc1NS(=O)(=O)c1cc2c(cc1C)NC(=O)CO2`: the “activation” value is inactive: -8.43%.

Regarding `CCN(CC)CCCNC(=O)CCCn1c(=O)[nH]c2ccc(Br)cc2c1=O`, the “activation” value was inactive: 2.28%.

For `Cc1ccc(-n2nc(C(=O)N3CCN(c4ccccc4F)CC3)c3c4ccccc4n(C)c3c2=O)cc1`, the “activation” value was inactive: -15%.

In the case of `COc1cccc(CNC(=O)CN2N=C(c3ccc(C)cc3)CCC2=O)c1`, the “activation” value is inactive: -15%.

As for `COCCCNC(=O)Cn1c(=O)nc(-c2ccccc2)c2ccccc21`, the “activation” value is inactive: -8.2%.

Consider `Nc1ncn([C@H]2C[C@H](O)[C@@H](CO)O2)c(=O)n1`, for which the “activation” value is inactive: -11.6%.

On to `CC(CNC(=O)c1nnc(Cc2ccc(F)cc2)o1)c1ccccc1` (centres undefined), for which the “activation” value is inactive: 4.57%.

For the compound `Cc1ccc(-n2nc3c(=O)n(CC(=O)NCCC(C)C)nc(C)c3c2C)cc1`, the “activation” value is inactive: -5.39%.

For the compound `COc1cc2ncc(C(=O)c3ccc(C)cc3)c(N3CCCCC3)c2cc1OC`, the “activation” value is inactive: -13.3%.

For `COc1ccc(CNCCC(c2ccc3c(c2)OCO3)c2ccccc2OC)cc1` (centres undefined), the “activation” value was inactive: -8.27%.

For `COc1cccc(NC(=O)CSc2nccn2C2CCCC2)c1`, the “activation” value is inactive: -7.53%.
